Assay results as given in PMC4496297 (Nature structural & molecular biology, 2015).
Changes are numbered by the printed parent chain. Names may count otherwise. One block for each binder: values may come before it.

Experiments:
[1] = biological target: T1, WT FimD usher (purified, His-tag removed) (Escherichia coli, UniProt P30130 46-878); test: other fluorescence titration
T1 sequence: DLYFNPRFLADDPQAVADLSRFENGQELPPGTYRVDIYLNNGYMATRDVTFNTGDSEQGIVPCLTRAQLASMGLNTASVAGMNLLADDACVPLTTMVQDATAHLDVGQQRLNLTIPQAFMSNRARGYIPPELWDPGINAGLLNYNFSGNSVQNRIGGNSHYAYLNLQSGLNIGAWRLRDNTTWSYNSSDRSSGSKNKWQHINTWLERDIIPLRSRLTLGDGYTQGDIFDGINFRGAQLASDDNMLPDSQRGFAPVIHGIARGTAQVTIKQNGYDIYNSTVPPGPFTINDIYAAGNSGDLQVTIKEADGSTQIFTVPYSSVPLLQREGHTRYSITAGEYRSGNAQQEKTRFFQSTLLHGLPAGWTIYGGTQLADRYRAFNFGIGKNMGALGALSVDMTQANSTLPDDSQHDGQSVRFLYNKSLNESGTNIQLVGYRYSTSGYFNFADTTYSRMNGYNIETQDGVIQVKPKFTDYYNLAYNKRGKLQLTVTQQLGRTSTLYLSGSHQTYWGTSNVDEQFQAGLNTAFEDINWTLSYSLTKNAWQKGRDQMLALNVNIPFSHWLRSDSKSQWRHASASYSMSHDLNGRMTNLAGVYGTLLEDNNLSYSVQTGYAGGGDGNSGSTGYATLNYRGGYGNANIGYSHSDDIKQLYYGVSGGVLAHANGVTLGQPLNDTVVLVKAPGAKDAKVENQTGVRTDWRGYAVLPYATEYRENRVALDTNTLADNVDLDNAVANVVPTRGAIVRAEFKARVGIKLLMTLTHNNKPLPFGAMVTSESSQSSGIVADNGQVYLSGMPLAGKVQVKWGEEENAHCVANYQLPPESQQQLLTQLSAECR

[2] = biological target: T2, FimD_(Δplug) (purified, His-tag removed) (Escherichia coli, UniProt P30130 46-878, delete residues 244-323 | N243G); test: other fluorescence titration
T2 sequence: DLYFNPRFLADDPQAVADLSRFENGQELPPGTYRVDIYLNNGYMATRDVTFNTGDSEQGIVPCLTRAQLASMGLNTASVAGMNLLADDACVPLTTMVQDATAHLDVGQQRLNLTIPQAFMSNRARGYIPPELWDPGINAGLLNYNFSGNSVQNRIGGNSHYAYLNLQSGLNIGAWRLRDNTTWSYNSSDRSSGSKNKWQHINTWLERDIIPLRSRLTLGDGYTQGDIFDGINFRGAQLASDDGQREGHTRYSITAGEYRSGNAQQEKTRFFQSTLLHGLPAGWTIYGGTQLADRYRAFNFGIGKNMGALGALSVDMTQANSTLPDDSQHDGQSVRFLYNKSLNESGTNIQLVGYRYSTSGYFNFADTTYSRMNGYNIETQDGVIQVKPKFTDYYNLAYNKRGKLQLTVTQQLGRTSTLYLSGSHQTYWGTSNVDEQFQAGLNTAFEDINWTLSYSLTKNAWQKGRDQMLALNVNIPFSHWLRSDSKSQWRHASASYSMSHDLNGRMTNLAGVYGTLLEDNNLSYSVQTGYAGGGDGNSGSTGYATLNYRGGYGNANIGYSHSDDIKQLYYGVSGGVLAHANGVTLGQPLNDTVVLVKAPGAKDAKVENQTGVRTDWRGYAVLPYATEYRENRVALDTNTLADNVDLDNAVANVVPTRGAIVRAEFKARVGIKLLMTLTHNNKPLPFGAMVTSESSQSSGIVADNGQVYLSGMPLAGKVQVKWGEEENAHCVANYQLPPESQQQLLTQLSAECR

Kd [1]: 12.6 nM | Kd [2]: 12.5 nM
B1: FimC_(Q19C)-FimH chaperone-adhesin complex, FimC labeled with coumarin maleimide (CPM) (complex)
chain 1: GVALGATRVIYPAGQKQECLAVTNNDENSTYLIQSWVENADGVKDGRFIVTPPLFAMKGKKENTLRILDATNNQLPQDRESLFWMNVKAIPSMDKSKLTENTLQLAIISRIKLYYRPAKLALPPDQAAEKLRFRRSANSLTLINPTPYYLTVTELNAGTRVLENALVPPMGESTVKLPSDAGSNITYRTINDYGALTPKMTGVME
chain 2: [about 300 residues not given here]
modifications: coumarin maleimide (CPM) on the cysteine at position 19

binding result [1]: binds
B2: FimC_(T51C)-FimH chaperone-adhesin complex, FimC labeled with coumarin maleimide (CPM) (complex)
chain 1: B1 chain 1 with C19Q, T51C
chain 2: [about 300 residues not given here]
modifications: coumarin maleimide (CPM) on the cysteine at position 51

binding result [1]: binds
B3: FimC_(N86C)-FimH chaperone-adhesin complex, FimC labeled with coumarin maleimide (CPM) (complex)
chain 1: B1 chain 1 with C19Q, N86C
chain 2: [about 300 residues not given here]
modifications: coumarin maleimide (CPM) on the cysteine at position 86
